# According to the supplement of paper PMC4604168 (melanoma cell lines):
# The list shows a part of the results. Most values come without repeats; read them as rough.
# Test system: WM3526
# Test: cell count relative to DMSO control; melanoma cells; higher = more viable cells
# Details: library dose: low library concentration; 72 h
# 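Note: cell number obtained by counting DAPI-stained nuclei in high-throughput microscope images with image analysis software, screen run in 1,536-well plates.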
row,SMILES,cell count [%]
1,"O=C(Oc1ccc([N+](=O)[O-])cc1)N1CCC(C(O)(c2ccc3c(c2)OCO3)c2ccc3c(c2)OCO3)CC1 + CCCCCCCCCCCC1=C(O)C(=O)C=C(O)C1=O [Embelin] (first compound 1 µM, partner dose 1.2 µM)",88.5
2,"COc1ccc(C2=N[C@@H](c3ccc(Cl)cc3)[C@@H](c3ccc(Cl)cc3)N2C(=O)N2CCNC(=O)C2)c(OC(C)C)c1 [Nutlin-3] + C[C@]12O[C@H](C[C@]1(O)CO)n1c3ccccc3c3c4c(c5c6ccccc6n2c5c31)CNC4=O [Lestaurtinib] (first compound 0.1 µM, partner dose 0.004 µM)",93.5
3,"Cc1cn(-c2cc(NC(=O)c3ccc(C)c(Nc4nccc(-c5cccnc5)n4)c3)cc(C(F)(F)F)c2)cn1 [nilotinib] + C[C@]12O[C@H](C[C@]1(O)CO)n1c3ccccc3c3c4c(c5c6ccccc6n2c5c31)CNC4=O [Lestaurtinib] (first compound 0.2 µM, partner dose 0.004 µM)",114
4,"COc1cc2c(Oc3ccc4[nH]c(C)cc4c3F)ncnc2cc1OCCCN1CCCC1 [cediranib] + C/C(O)=C(\C#N)C(=O)Nc1cc(Br)ccc1Br [LFM-A13] (first compound 0.4 µM, partner dose 2 µM)",76.5
5,"O=C(/C=C/c1cccnc1)NCCCCC1CCN(C(=O)c2ccccc2)CC1 + Cc1cc(SCc2sc(-c3ccc(C(F)(F)F)c(F)c3)nc2C)ccc1OCC(=O)O [GW0742] (first compound 0.01 µM, partner dose 2 µM)",110
6,"Cn1c(=O)n(-c2ccc(C(C)(C)C#N)cc2)c2c3cc(-c4cnc5ccccc5c4)ccc3ncc21 + N.N.[Cl][Pt][Cl] [cisplatin] (first compound 0.004 µM, partner dose 1.6 µM)",91.3
7,"Cc1cc(N2CCOCC2)cc2[nH]c(-c3c(NC[C@@H](O)c4cccc(Cl)c4)cc[nH]c3=O)nc12 + Cc1cc(SCc2sc(-c3ccc(C(F)(F)F)c(F)c3)nc2C)ccc1OCC(=O)O [GW0742] (first compound 0.2 µM, partner dose 2 µM)",104
8,"CCCCCCCCc1ccc(CCC(N)(CO)CO)cc1 [fingolimod] + C[As](C)SC[C@H](NC(=O)CC[C@H](N)C(=O)O)C(=O)NCC(=O)O [Darinaparsin] (first compound 2 µM, partner dose 0.4 µM)",84.2
9,"CNC(=O)c1cc(Oc2ccc(NC(=O)Nc3ccc(Cl)c(C(F)(F)F)c3)cc2)ccn1 [sorafenib] + Cc1cc(SCc2sc(-c3ccc(C(F)(F)F)c(F)c3)nc2C)ccc1OCC(=O)O [GW0742] (first compound 0.4 µM, partner dose 2 µM)",85.2
10,"CS(=O)(=O)CCNCc1ccc(-c2ccc3ncnc(Nc4ccc(OCc5cccc(F)c5)c(Cl)c4)c3c2)o1 [lapatinib] + O=C(Oc1ccc([N+](=O)[O-])cc1)N1CCC(C(O)(c2ccc3c(c2)OCO3)c2ccc3c(c2)OCO3)CC1 [JZL184] (first compound 0.8 µM, partner dose 1 µM)",106
11,"COc1ccc2c(c1)CCC1C2CCC2(C)C(NCCCCCCN3C(=O)C=CC3=O)CCC12 (stereo unspecified) + C/C(O)=C(\C#N)C(=O)Nc1cc(Br)ccc1Br [LFM-A13] (first compound 0.4 µM, partner dose 2 µM)",86.6
